This experiment deals with T1, human alpha-1-antitrypsin (AAT) fused to the N-terminus of the BAP, secreted without BirA (not biotinylated) (human, UniProt P01009).
T1 construct: mature; also called AAT-BAP
Kind of experiment: Western blot of TCA-precipitated culture medium, avidin-HRP probe. (Immunoblotting shows a protein as a band on a membrane.)

T1 sequence (P01009 other isoform, or with tags, fused parts or gaps): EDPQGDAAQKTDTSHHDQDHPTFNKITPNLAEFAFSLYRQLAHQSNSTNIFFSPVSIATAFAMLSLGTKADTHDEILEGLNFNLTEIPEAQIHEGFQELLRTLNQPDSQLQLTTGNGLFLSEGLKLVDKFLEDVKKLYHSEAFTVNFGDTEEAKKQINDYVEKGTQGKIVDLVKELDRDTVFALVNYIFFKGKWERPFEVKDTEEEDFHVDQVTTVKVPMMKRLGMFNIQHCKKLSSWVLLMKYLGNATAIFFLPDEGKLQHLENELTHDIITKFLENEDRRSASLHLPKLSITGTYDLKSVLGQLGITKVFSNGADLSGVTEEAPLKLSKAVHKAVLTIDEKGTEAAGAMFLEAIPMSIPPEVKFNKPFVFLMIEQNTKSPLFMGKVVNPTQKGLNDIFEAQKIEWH

B1: avidin-HRP (other, UniProt P02701 25-152, looked up)
chain: ARKCSLTGKWTNDLGSNMTIGAVNSRGEFTGTYITAVTATSNEIKESPLHGTQNTINKRTQPTFGFTVNWKFSESTTVFTGQCFIDRNGKEVLKTMWLLRSSVNDIGDDWKATRVGINIFTRLRTQKE
modifications: conjugated to HRP
notes: Bought detection reagent; also called avidin-HRP conjugate
Take B1: the binding result is “no binding”.

(Values after patent publication US20020142355A1 (BAYLOR COLLEGE OF MEDICINE, published 2002).)
